In PMC4336329 (PLoS ONE, 2015):
About 2,200 (0.71%) of roughly 310,000 compounds showed an effect of 50% or more. The effect is printed as a negative number. Some of the results follow.

Each compound was assayed against human ether-à-go-go-related gene (hERG) potassium channel (human, UniProt Q12809) (assay: primary screen, population patch clamp on CHO cells stably expressing hERG).
Sequence of human ether-à-go-go-related gene (hERG) potassium channel (Q12809 whole entry, looked up): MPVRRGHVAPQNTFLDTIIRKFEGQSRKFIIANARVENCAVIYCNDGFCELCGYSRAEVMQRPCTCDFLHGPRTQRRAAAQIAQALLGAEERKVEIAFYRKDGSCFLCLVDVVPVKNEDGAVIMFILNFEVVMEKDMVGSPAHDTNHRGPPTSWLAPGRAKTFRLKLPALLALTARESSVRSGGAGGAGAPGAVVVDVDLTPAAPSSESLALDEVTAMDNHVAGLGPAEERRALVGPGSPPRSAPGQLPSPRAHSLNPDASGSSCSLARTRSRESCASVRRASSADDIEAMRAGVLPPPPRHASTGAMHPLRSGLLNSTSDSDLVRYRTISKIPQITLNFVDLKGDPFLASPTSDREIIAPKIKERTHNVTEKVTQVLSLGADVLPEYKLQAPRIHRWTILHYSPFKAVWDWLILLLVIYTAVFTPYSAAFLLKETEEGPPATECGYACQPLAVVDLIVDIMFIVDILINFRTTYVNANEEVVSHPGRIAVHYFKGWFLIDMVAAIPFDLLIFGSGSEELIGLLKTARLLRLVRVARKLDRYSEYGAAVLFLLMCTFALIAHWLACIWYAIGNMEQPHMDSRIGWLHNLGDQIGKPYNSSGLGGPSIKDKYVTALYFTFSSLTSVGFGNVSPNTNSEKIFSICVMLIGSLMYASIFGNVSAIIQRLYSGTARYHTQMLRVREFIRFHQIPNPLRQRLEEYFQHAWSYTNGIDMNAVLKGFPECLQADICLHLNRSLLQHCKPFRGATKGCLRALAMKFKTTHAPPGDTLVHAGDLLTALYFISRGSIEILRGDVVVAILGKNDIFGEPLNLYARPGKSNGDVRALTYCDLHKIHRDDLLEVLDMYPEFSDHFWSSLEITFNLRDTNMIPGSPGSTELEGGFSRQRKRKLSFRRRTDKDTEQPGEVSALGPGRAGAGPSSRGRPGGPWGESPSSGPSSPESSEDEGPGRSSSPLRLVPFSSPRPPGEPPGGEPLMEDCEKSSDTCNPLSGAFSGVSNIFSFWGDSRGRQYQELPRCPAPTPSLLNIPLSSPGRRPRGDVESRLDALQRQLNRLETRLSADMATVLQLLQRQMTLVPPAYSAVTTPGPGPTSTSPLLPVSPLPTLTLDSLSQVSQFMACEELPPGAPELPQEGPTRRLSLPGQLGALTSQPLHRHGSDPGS

SMILES	hERG current change (%, negative = inhibition) at 1uM [%]
O=C(NN=C(Cc1ccccc1)Cc1ccccc1)c1ccncc1	4.05
COc1ccc(C(C(=O)NCC2CCCO2)N(C(=O)Cn2nnc3ccccc32)c2ccccc2C(C)=O)cc1OC (stereo not shown)	-1.08
CC1(C)Cc2c(sc3nn[nH]c(=O)c23)CO1	10.6
COc1cc(NC(=O)c2ccco2)c(OC)cc1NC(=O)c1cc(OC)c(OC)c(OC)c1	15.3
Fc1ccc(N2CCN(C(=S)NCC3CCCO3)CC2)cc1 (stereo not shown)	8.3
O=C(Cc1ccc([N+](=O)[O-])cc1)Nc1ccc2c(c1)C(=O)NC2=O	-12.8
CCOC(=O)c1cc(NC(=O)COC)ccc1O	12.6
COCCn1c(SCC(=O)Nc2cc(Cl)ccc2OC)nc2c(c1=O)SC(C)C2 (stereo not shown)	7.35
O=C(Oc1ccc(OC(=O)c2ccco2)c(S(=O)(=O)c2ccc(Cl)cc2)c1)c1ccco1	5.98
CC(C)C(NC(=O)CN1C(=O)c2ccccc2S1(=O)=O)C(C)C	1.63
CCOC(=O)c1ccc(NC(=O)N2CCCCC2)cc1	8.51
Cc1nnc(NC(=O)c2ccc(S(=O)(=O)N3CCc4ccccc4C3)cc2)o1	12.4
O=C(N/N=C/c1ccc(OCc2ccccc2)cc1)c1cc[n+](Cc2ccccc2)cc1.[Cl-]	-2.36
Cc1cc2nc3n(c2cc1C)CC1CC(C(=O)NCc2cccc(Br)c2)N(C)C31 (stereo not shown)	-13
Cc1ccc(-c2nc3ccccc3c(=O)n2Cc2ccccc2)cc1	-6.52
CCCCC(=O)N/N=C/c1cc([N+](=O)[O-])ccc1N1CCOCC1	-5.25
O=C(NCCc1cccs1)c1ccc(Cl)cc1	8.16
COc1ccc(CN(Cc2ccccn2)C(=O)CN2C(=O)COc3ccccc32)cc1	2.74
COC(=O)c1c(-c2ccc(C)cc2)csc1NC(=O)c1c(-c2ccccc2)noc1C	12.1
Cn1ccnc1/C(=N\NC(=O)c1ccc(O)cc1)c1cccc([N+](=O)[O-])c1	-2.46
CCC(=NCCc1ccccc1)c1c(O)n(C)c(=O)n(C)c1=O	6.48
CN1CCN(c2nc3c(c(=O)n(C)c(=O)n3C)n2Cc2ccc(Cl)cc2)CC1	-5.48
Cc1noc(C(=O)N2CC3(C)CC2CC(C)(C)C3)c1Cl (stereo not shown)	-9.17

SMILES	hERG current change (%, negative = inhibition) at 1uM [%]
Cn1c(SCC(=O)NC(=O)Nc2ccccc2)nnc1-c1ccncc1	9.09
NCC(=O)CCC(=O)O	7.17
COC(=O)C(NC(=O)C(NC(=O)C1CCC(C)CC1)C(C)C)C(C)C (stereo not shown)	12.3
O=C(/C=C/c1ccccc1)NCC(=O)N/N=C/c1ccco1	3.94
COc1ccc(NC(=O)CSc2nccn2Cc2ccco2)cc1OC	5.8
Clc1ccc(-c2cc(CN3CCCCC3)no2)cc1Cl	16.3
CNc1ncc(C(=O)C(C)(C)C)s1	6.47
CC(C)N(C(=O)COC(=O)c1cncc(Br)c1)C(C)C	10.4
COC(=O)c1ccc2c(C)c(C(C)(C)O)[nH]c2c1	5.9
Cn1c(SCc2nc(-c3ccccc3)no2)nnc1-c1ccco1	2.71
COc1ccccc1Oc1ccc(S(=O)(=O)N2CCCCC2)cc1NC(=O)CCNC(C)=O	-3.14
COC(=O)C1CCN(C(=O)COC(=O)CCc2nc3ccccc3c(=O)[nH]2)CC1	6.54
COc1ccc(NC(=O)CNc2ccccc2N2CCCC2=O)cc1S(=O)(=O)N1CCOCC1	9.33
CCOC(=O)c1[nH]c2ccccc2c1NC(=O)NC(C)C	11.7
Cc1ccc(S(=O)(=O)N2CCCCC2)cc1C(=O)N1CCCC1	11.6
Cc1[nH]c2ccccc2c1C(C#N)(C#N)C1C(=O)c2ccccc2C1=O	5.22
CC(CN1CCN(c2ccccc2)CC1)c1ccccc1 (stereo not shown)	5.12
C/C(=N\NC(=O)c1ccc2c(c1)OCO2)c1ccco1	14.3
Cn1c(=O)c2cn(Cc3ccc(Cl)cc3)cc2n(C)c1=O	15.6
CCOC(=O)C(C)n1cnc2c(cnn2-c2ccc(Cl)cc2)c1=O (stereo not shown)	7.05
CC(CC(=O)N1CCN(C(=O)c2ccccc2)CC1)c1ccccc1 (stereo not shown)	1.46
CC(C)Cn1c(-c2ccccc2)nc(=S)c2c1CCCC2	17.3
Cc1ccc(OCC(=O)OCc2c(C)noc2C)cc1C	-13.7

SMILES	hERG current change (%, negative = inhibition) at 1uM [%]
CCc1cc(=O)[nH]c(-n2[nH]c(-c3ccccc3)cc2=O)n1	19.5
CC(=O)c1cc(C#N)c(Oc2ccccc2)nc1C	15.6
CC(SC(=S)N1CCOCC1)C(=O)O (stereo not shown)	5.56
CCCN1CCC(=NNc2ccc(S(=O)(=O)N(CC)CC)cc2[N+](=O)[O-])CC1	7.7
O=C(NCCC1=CCCCC1)c1ccc(Cl)c(S(=O)(=O)N2CCOCC2)c1	0.268
Cc1cc(-c2csc(N)n2)c(C)n1Cc1ccccc1	1.75
CCCC(C)CO (stereo not shown)	11.1
CCN(CC)C(=O)CC(c1cc(OC)c(OC)c(OC)c1)c1c(OC)cc(OC)c2c(-c3ccccc3)cc(=O)oc12 (stereo not shown)	18.5
CN(C)CC(C)(C)CNS(=O)(=O)c1ccc(Cl)s1	15.4
CCc1cccc(Nc2cc(C)nc3ncnn23)c1	2.1
CCOC(=O)C1C2C=CC3(CN(Cc4ccccc4)C(=O)C13)O2 (stereo not shown)	-0.0721
COc1ccc(/C=C/C(=O)NC(=S)NNC(=O)c2ccco2)cc1OC	4.79
CC1Cc2cc(S(=O)(=O)NCc3ccccc3)ccc2N1C(=O)C1CC1 (stereo not shown)	8.4
COc1cc(C(c2c(C)n(C)n(-c3ccccc3)c2=O)c2c(C)n(C)n(-c3ccccc3)c2=O)cc(Br)c1O	16.9
Cc1nc(SCC(=O)NCc2ccco2)c2c3c(sc2n1)CCCC3	1.52
Cn1nnc(NC(=O)c2ccc(C(C)(C)C)cc2)n1	8.06
Cc1ccc(NC(=S)NC2CCCC2)cc1C	9.49
CCOc1ccc(C2SCC(=O)Nc3c2c(=O)[nH]n3C2CCCCCC2)cc1 (stereo not shown)	0.105
CC(C)(CO)CNC(=O)c1ccc2nc(Cc3cccc(Cl)c3)oc2c1	2.77
O=C(O)C1C2CCC(O2)C1C(=O)Nc1ccc(O)cc1 (stereo not shown)	11.6
c1ccc(CSc2nnc3ccc(-c4ccncc4)nn23)cc1	-12
Cc1nc(C)n(C)c(=O)c1-c1ccccc1	0.842
CCOC(=O)N/N=C\c1ccc(OC/C=C/c2ccccc2)c(OC)c1	12.3

SMILES	hERG current change (%, negative = inhibition) at 1uM [%]
Cc1ccc(CNS(=O)(=O)c2cc(F)ccc2CN2C(=O)c3cccnc3C2=O)o1	12
COc1cccc(NC(=O)COC(=O)c2c(NC(C)=O)sc(C)c2C)c1	9.59
Cc1ccccc1NC(=O)COC(=O)c1ccccc1SCC(=O)N1CCCC1	12.3
Nc1ncnc2c1ccn2[C@@H]1O[C@H](CO)[C@@H](O)[C@H]1O	3.09
CN1C(=S)SC(/[N+]([O-])=C/c2ccc(Cl)cc2)C1(C)C (stereo not shown)	17.2
Fc1cccc(/C=N/Nc2nc3ccccc3[nH]2)c1	14.3
O=C(COc1nsnc1N1CCOCC1)Nc1ccc(Cl)cc1	9.65
Cn1c(=O)c2c(nc(N/N=C/c3cccs3)n2Cc2ccccc2)n(C)c1=O	7.42
CCOC(=O)C1=C(C)NC(=O)C1CC(=O)Nc1ccccc1 (stereo not shown)	12
CCOC(=O)N1CCN(C(=O)c2ccc(SC)cc2OC)CC1	10.4
Fc1ccccc1COc1cccc(/C=N/n2cnnc2)c1	-12.6
NC(=O)c1cnccn1	12.5
Cn1nnnc1SCC(=O)Nc1c(Cl)cccc1Cl	9.9
CCC1(CC)NC(=O)N(CC(=O)OCC(=O)Nc2ncc(Cl)cc2Cl)C1=O	4.27
O=C1c2ccccc2NC(c2cccnc2)N1c1ccccc1F (stereo not shown)	7.17
O=C(Oc1c(Cl)cc(Cl)c2cccnc12)c1cccc([N+](=O)[O-])c1	14.9
Cc1c(Cl)cccc1N=C(N)N=C(N)N	10.4
COc1cccc(C(=O)NCCSc2c(C)[nH]c3ccccc23)c1OC	8.32
O=C(NCCCN1CCCC1=O)c1cc(NS(=O)(=O)c2ccc(F)cc2)cc(NS(=O)(=O)c2ccc(F)cc2)c1	-7.14
O=C(OCC(=O)N1CCCc2ccccc21)c1cc(Cl)ccc1O	16.2
Cc1ccc(S(=O)(=O)Nc2nncs2)cc1	-4.68
O=C(CCNC(=O)c1ccc([N+](=O)[O-])cc1)Nc1cccc(S(=O)(=O)N2CCCCC2)c1	-3.91
